Tests used:
[1] = molecular target: T1, cMET (UniProt P08581 25-932); test: BLI (Probelife), BsAb conc. 12.7 nM
T1 construct: also called cMET protein

[2] = molecular target: T1, cMET; test: BLI (Probelife), BsAb conc. 114 nM
[3] = molecular target: T1, cMET; test: BLI (Probelife), BsAb conc. 38.1 nM
[4] = molecular target: T1, cMET; test: BLI (Probelife), BsAb conc. 4.23 nM
[5] = molecular target: T2, c-MET-His tag protein (human, UniProt P08581 25-932); test: titration ELISA, c-MET-His coated
T2 construct: also called cMET-HIS tagged; not shown: His tag

[6] = molecular target: T1, cMET; test: BLI (Probelife), BsAb conc. 1.41 nM
[7] = molecular target: T1, cMET; test: separate experiment, method not restated (BLI in this example), cMET binding

T1 sequence (P08581 25-932): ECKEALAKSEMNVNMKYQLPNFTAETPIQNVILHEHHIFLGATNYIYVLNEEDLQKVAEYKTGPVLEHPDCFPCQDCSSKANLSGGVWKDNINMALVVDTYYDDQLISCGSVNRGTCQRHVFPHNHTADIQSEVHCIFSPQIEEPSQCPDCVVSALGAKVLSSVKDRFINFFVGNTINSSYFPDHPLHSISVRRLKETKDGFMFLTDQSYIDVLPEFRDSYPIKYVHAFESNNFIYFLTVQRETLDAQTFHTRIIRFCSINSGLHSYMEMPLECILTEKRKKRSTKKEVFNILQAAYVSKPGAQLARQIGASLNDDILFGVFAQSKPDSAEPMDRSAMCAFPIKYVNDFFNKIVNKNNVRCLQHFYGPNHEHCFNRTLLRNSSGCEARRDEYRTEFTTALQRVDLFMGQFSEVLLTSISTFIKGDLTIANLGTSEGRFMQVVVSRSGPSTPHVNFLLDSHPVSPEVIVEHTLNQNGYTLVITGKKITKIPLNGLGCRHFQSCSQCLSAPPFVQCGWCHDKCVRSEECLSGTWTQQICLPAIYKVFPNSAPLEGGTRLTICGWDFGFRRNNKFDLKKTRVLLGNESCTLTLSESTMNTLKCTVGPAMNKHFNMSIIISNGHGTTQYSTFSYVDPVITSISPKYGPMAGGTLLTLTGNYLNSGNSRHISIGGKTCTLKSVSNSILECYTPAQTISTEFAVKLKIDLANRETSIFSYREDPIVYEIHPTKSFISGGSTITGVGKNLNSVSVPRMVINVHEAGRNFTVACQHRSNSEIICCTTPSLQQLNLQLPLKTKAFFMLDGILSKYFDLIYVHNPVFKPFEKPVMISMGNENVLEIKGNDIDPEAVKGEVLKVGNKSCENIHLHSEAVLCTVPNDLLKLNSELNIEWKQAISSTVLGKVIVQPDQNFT

B1: 1H1-cMET/EGFR-Fc(WT)-V3 (bispecific antibody)
heavy: QVQLVESGGGLVQPGGSLKLSCAVSASLFSINTMGWFRQGPGKEREFVAAISWSGGNYYATFARGRFTISSEDAKDTVYLQMDNLKPEDTAVYFCGADRWGTGSMNAPDYDYWGRGTLVTVSSGGGGSGGGGSGGGGSQVQLVESGGGVVQPGRSLRLSCAASGFTFSTYGMHWVRQAPGKGLEWVAVIWDDGSYKYYGDSVKGRFTISRDNSKNTLYLQMNSLRAEDTAVYYCARDGITMVRGVMKDYFDYWGQGTLVTVSS[omitted - human IgG1 constant region]
light: AIQLTQSPSSLSASVGDRVTITCRASQDISSALVWYQQKPGKAPKLLIYDASSLESGVPSRFSGSESGTDFTLTISSLQPEDFATYYCQQFNSYPLTFGGGTKVEIKRTVAAPSVFIFPPSDEQLKSGTASVVCLLNNFYPREAKVQWKVDNALQSGNSQESVTEQDSKDSTYSLSSTLTLSKADYEKHKVYACEVTHQGLSSPVTKSFNRGEC
notes: also called 1H1 v3; 1H1cMET/EGFR-Fc(WT) BsAb
Kd [1]: 317 pM
koff [1]: 0.000785 s⁻¹
kon [1]: 2.48e+06 M⁻¹ s⁻¹
Kd [2]: 317 pM
kon [2]: 2.48e+06 M⁻¹ s⁻¹
Kd [3]: 317 pM
koff [3]: 0.000785 s⁻¹
kon [3]: 2.48e+06 M⁻¹ s⁻¹
Kd [4]: 317 pM
koff [4]: 0.000785 s⁻¹
kon [4]: 2.48e+06 M⁻¹ s⁻¹
EC50 [5]: 8.61 ng/mL
Kd [6]: 317 pM
koff [6]: 0.000785 s⁻¹
kon [6]: 2.48e+06 M⁻¹ s⁻¹
Kd [7]: 239 pM
